# From the supplement of paper PMC3334620
# The full ranking holds about 33,000 sequences; the median of “E-score (-0.5 to 0.5)” is about -0.041, and the highest 2% start at about 0.37. Some of the results follow.
# Target: T1, Ecm22 (UniProt Q05958)
# T1 sequence: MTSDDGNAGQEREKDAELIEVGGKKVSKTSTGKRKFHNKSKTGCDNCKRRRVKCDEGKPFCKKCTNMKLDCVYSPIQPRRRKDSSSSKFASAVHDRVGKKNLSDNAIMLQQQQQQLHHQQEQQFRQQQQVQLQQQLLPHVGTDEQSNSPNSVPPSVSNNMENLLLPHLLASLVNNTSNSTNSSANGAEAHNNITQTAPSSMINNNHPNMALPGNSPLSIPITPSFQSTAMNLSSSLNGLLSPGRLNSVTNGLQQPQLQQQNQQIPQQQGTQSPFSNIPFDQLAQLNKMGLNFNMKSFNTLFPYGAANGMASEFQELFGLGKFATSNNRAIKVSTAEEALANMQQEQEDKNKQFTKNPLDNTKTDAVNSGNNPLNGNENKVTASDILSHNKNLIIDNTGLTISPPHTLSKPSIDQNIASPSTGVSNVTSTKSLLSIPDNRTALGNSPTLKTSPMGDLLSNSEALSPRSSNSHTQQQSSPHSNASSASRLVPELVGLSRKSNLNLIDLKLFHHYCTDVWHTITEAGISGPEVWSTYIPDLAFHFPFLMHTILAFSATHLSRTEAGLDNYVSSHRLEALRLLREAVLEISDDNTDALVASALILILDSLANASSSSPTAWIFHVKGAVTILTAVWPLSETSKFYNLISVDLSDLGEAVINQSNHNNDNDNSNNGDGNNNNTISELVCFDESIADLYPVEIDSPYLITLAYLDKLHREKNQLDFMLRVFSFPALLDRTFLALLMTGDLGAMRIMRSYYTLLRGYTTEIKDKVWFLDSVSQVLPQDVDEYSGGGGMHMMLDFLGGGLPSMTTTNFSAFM
# Assay: PBM E-score (8-mer binding enrichment) (E-score (-0.5 to 0.5)); higher = stronger / more preferred TF binding; most listed sequences are background and not binding sites
# Conditions: protein concentration: 200 nM; construct: GST-full length
# Method in brief: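 Detection of bound protein used fluorescent anti-GST, with scans normalised by masliner. The proteins were GST-tagged yeast transcription factors applied at about 100-200 nM to universal all-10-mer Agilent arrays made double-stranded by primer extension. Each ungapped eight-base word, pooled with its reverse complement, was scored with an E-score from the Universal PBM Analysis Suite.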
row,Sequence,PBM E-score
1,GATGCTCC,-0.0472
2,CTATCAAA,-0.0898
3,CCCCGAGC,-0.202
4,CTCCGGGC,-0.0634
5,TCAAGCCA,-0.0735
6,AGATGCTG,-0.245
7,GCGTGCCC,-0.0439
8,GAAAGGTA,-0.0314
9,CCGATTAG,0.175
10,AACATAAC,-0.00214
11,ATCCTGGG,-0.168
12,CCATTTAG,0.0519
13,CACCTGGA,-0.181
14,TCTTGTAA,0.0397
15,CTCGGTTA,0.383
16,ACGGAAGG,-0.0464
17,CGAAAGTA,0.0633
18,CTTACTTC,0.0693
19,GGTCTGAC,-0.241
20,CTGTCCAA,-0.0899
21,CCACCCTA,-0.135
22,GGGCGCCA,-0.251
23,CCATTTCG,0.0396
24,GACTCGGA,0.119
25,AAAAAAGC,-0.187

row,Sequence,PBM E-score
1,CCGATGGC,-0.0332
2,CACTATCC,-0.0493
3,GATCGGCA,-0.0142
4,TCGACAGA,0.0367
5,CAATTCTG,-0.298
6,TGCTAAAA,-0.147
7,CGCGACCC,0.07
8,GCTGAATA,-0.0929
9,AATGGTCA,-0.122
10,TCAGTTCA,-0.0433
11,ATTGTTTG,-0.129
12,AACCCTGT,-0.0941
13,GTGTGAAC,0.106
14,ATGGGCAA,0.0376
15,TGGGCACA,-0.3
16,AAGGTAAC,0.186
17,ACTTGCAA,0.072
18,GATTGCTA,-0.0307
19,AGCCCTTG,-0.255
20,TAGATCGA,-0.035
21,GGGAGAAC,-0.137
22,ATTTAGGG,-0.00056
23,AGGATACT,-0.266
24,ACGCATTA,-0.111
25,ACCAGCAT,-0.118

row,Sequence,PBM E-score
1,AGAATAGA,-0.11
2,ACGGAAGT,0.198
3,CGGATGTC,0.173
4,ACATCAGG,-0.138
5,CCGTCACC,-0.0526
6,AGAGGGCT,-0.339
7,ATGCCATA,0.0201
8,AACGTTCT,0.197
9,CATAGTCC,-0.173
10,GATCTGCA,-0.0972
11,TAATTTAA,0.112
12,AGAACCAT,-0.0792
13,ACGCAAGC,0.0609
14,TCTTCTAA,-0.0793
15,ATGATCAC,0.133
16,GGTCATTA,-0.0468
17,AACATATT,0.0935
18,AAACCTAC,-0.0318
19,ACCCGCAG,-0.0811
20,CACCGTGA,-0.146
21,ACGCCGCT,0.0724
22,AAGCCGCC,-0.191
23,ACTAAGGG,-0.0514
24,AGAGTACC,-0.21
25,CTTCTCTA,-0.353

row,Sequence,PBM E-score
1,AATACCTC,0.0681
2,AGCAGTTA,-0.0915
3,GGATGAAA,-0.0649
4,CATGGAAC,-0.0916
5,CTTCTAGC,-0.0841
6,CCACTGCC,-0.0201
7,CTCAAGAA,-0.182
8,ACAAAAAT,0.0378
9,AACACCAT,0.00405
10,ATCTTAGC,-0.191
11,AGAAGTGA,-0.314
12,GCATTAAA,-0.00384
13,AACGCAAA,0.101
14,ATAACGCG,0.135
15,CGGCGTAC,0.253
16,ACTACTCG,0.235
17,AGATGGCC,-0.148
18,GATAGCGC,0.0119
19,CCGAAGGC,-0.06
20,GCCGGCAA,-0.11
21,ACCTAGGA,-0.149
22,AAAGGGAG,-0.0883
23,CTATTGTA,0.0295
24,CGCTTGTA,0.144
25,GAGTCACC,-0.239

row,Sequence,PBM E-score
1,ACGCCAGG,0.0457
2,AACTTACT,-0.0669
3,GGAATGCC,-0.127
4,TCATCTCA,-0.176
5,CAGCTAAC,-0.317
6,CCGATGTC,0.0725
7,ACACTGGG,-0.236
8,ATATCTTA,-0.0263
9,AATAGGTA,0.0489
10,AAGTTCTA,-0.128
11,CGACCTTA,0.198
12,AAAACCAT,0.00577
13,AGATGTGC,0.00632
14,CGGTGGCA,-0.0759
15,TTATTGAA,-0.0898
16,TAACGAGA,0.369
17,GCACCACA,-0.165
18,AGCACCAG,-0.102
19,CCGCCTCC,-0.146
20,CCCATGGA,-0.322
21,CATTGAAA,-0.0549
22,GCCGCTAA,-0.136
23,ATTCATGG,-0.165
24,AGCTGTAC,0.115
25,ACCTGCAA,-0.123

row,Sequence,PBM E-score
1,CAATTCTA,0.0583
2,CGCCAAGA,-0.249
3,ATACATGA,-0.115
4,GGGTTCCA,-0.202
5,ACTGCAGG,-0.205
6,GAGCCCTC,0.0299
7,CTTCAAGC,-0.283
8,GTGCTATA,0.0864
9,CAGAGTTA,-0.19
10,CGACCGTA,0.353
11,CCACCCGA,0.0929
12,ACGATTGA,0.256
13,ATAGGAAC,0.163
14,GGTATACA,-0.21
15,CCGGCCCG,-0.0527
16,AAACAGAG,-0.0517
17,ATACCTTG,-0.247
18,AGGCATAT,0.071
19,CATTTGCG,0.0603
20,CTAGCCAA,-0.217
21,AGTGCGAA,-0.0211
22,ATCCCTCA,-0.127
23,AATACTCT,-0.15
24,AGAATCTC,0.059
25,TACGTTAA,0.284

row,Sequence,PBM E-score
1,CGTACCCA,0.406
2,GCTCATTA,-0.0727
3,GTTGGAAA,-0.123
4,ATTACGGC,0.0778
5,ATAATTTA,0.152
6,AGAAGACT,-0.182
7,ACGTCCAG,-0.212
8,CTGCATTC,0.0735
9,CAACACAC,-0.0749
10,AAGTCGTC,0.139
11,GACAGAGC,-0.223
12,GCTACCCA,-0.221
13,AACTGGGA,-0.217
14,AGAGGGTC,-0.257
15,AGGGAAAA,-0.0563
16,AAAAAGGG,-0.092
17,AGTGTAGA,-0.064
18,TACCCCTA,-0.119
19,AGCCGTTC,0.267
20,ATATCAAA,0.0161
21,TAGATCTA,0.0649
22,GGTCGGAC,0.0643
